Measurements as given in PubChem BioAssay (NCI).
Where “and” joins values, the source holds several entries; their conditions need not be identical. Equal values may be shown once.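 Values below derive from 48-hour exposures of cells grown in 96-well plates, with endpoints linearly interpolated between the two concentrations bracketing the appropriate inhibition level. GI50: concentration for 50% inhibition of growth. TGI denotes the concentration required for complete inhibition of growth.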 Peptide text beside a SMILES is read from it. * marks the point of attachment. Boc = CC(C)(C)OC(=O)*

System: NCI-H322M lung
Assay: growth of human tumour cells (NCI), 48 h

O=C(O)CCNc1ncc2c(n1)-c1ccccc1OC2
TGI: > 100 µM

O=c1oc2ccc3ccccc3c2cc1-c1nc(-c2ccc([N+](=O)[O-])cc2)n[nH]1
TGI: > 100 µM

CC(C)(C)C(O)CC(O)(C(F)(F)F)C(F)(F)F (stereo not drawn)
TGI: > 100 µM

CN1C(=S)CSc2ccccc21
TGI: > 100 µM

C/C=C(\C)c1cc(=O)c2c(C)cc3c(c2o1)C(OC)(OC(C)=O)c1c(O)c(C2CC(C)(N(C)C)C(OC(C)=O)C(C)O2)cc(C2CC(N(C)C)C(OC(C)=O)C(C)O2)c1C3=O (stereo not drawn)
TGI: 1.6 µM

CC(=O)c1cc2c(s1)C(=O)c1ccsc1C2=O
TGI: 3.48 µM

COc1cc(N2CCN(C(C)C)CC2)ccc1Nc1nc(Nc2ccc(F)cc2C(=O)NCC(O)CO)c2cc[nH]c2n1 (stereo not drawn)
GI50: 3.12 µM
TGI: > 25 µM

Cc1cc(I)cc(CNCCN2CCOCC2)c1O
GI50: 83.3 µM
TGI: > 100 µM

COc1ccc(C(OC(=O)[C@H](O[Si](C)(C)C(C)(C)C)[C@@H](NC(=O)c2ccccc2)c2ccccc2)c2ccc(OC)cc2)cc1
TGI: > 100 µM

CON=C1C[C@]2(C[C@@H]3C[C@@H](C/C=C(\C)C[C@@H](C)/C=C/C=C4\CO[C@@H]5[C@H](O)C(C)=C[C@@H](C(=O)O3)[C@]45O)O2)O[C@H](/C(C)=C/C(C)C)[C@H]1C
GI50: 14.5 µM
TGI: 28 µM

CC[C@@]1(O)C(=O)OCc2c1cc1n(c2=O)Cc2cc3c(CN(C)C)c(O)ccc3nc2-1
GI50: 0.142 µM and 0.319 µM and 0.436 µM

C[C@@H]1CC[C@H]2[C@@H](C)C(OC/C=C/COC3O[C@@H]4O[C@@]5(C)CC[C@H]6[C@H](C)CC[C@@H]([C@H]3C)[C@@]46OO5)O[C@@H]3O[C@@]4(C)CC[C@@H]1[C@]32OO4 (stereo partly drawn)
GI50: 6.37 µM
TGI: > 100 µM

N#CC(C#N)=Cc1ccc(C(O)P(=O)(O)O)cc1 (stereo not drawn)
TGI: > 100 µM

CCC[CH2][Sn]1([CH2]CCC)[O]C(=O)CN=C(C)c2ccccc2[O]1
GI50: 1.98 µM
TGI: 3.64 µM

Cn1cnc([N+](=O)[O-])c1Sc1nc2ccccc2o1
TGI: 37.5 µM

NS(=O)(=O)c1ccc(N=Nc2c(O)[nH]c3ccc(C(=O)NCCc4cnc[nH]4)cc23)cc1
GI50: > 25 µM
TGI: > 25 µM

CC1(C)CCCC2CC2CCC(C)(C)C1=O (stereo not drawn)
TGI: > 100 µM

CC(C)C(=O)Nc1ccc(-c2nc(-c3cccc(OCCN4CCOCC4)c3)c(-c3ccnc(Br)c3)[nH]2)cc1
GI50: 4.05 µM
TGI: > 100 µM

O=C(Nc1ccc(Oc2ccc(NC(=O)Nc3ccccc3Cl)cc2)cc1)Nc1ccccc1Cl
TGI: > 100 µM

C/C(=N\Nc1nc2ccccc2o1)c1ncccn1
TGI: 24.5 µM

Fc1ccc(Oc2nc3ccccc3nc2-c2ccccc2)cc1
TGI: > 100 µM

N#Cc1sc2c(c1OC(=O)c1ccc(Cl)cc1)c(=O)n(-c1ccccc1)c(=S)n2-c1ccccc1
TGI: > 100 µM

COc1ccc(N=N/C(=N\NC(=O)c2cc(Br)ccc2O)c2ccc(N(CCC#N)CCC#N)cc2OC)cc1
GI50: 100 µg/mL
TGI: > 150 µg/mL

COc1ccc(C2CC(c3ccc(NS(=O)(=O)c4cc([N+](=O)[O-])ccc4C)cc3)=NN2S(=O)(=O)c2cc([N+](=O)[O-])ccc2C)cc1 (stereo not drawn)
TGI: > 100 µM

CC(=O)n1nnc2ccc([N+](=O)[O-])cc21
TGI: > 100 µM

O=c1sc(Nc2ccc3ccccc3c2Cl)nc2ccccc12
TGI: > 100 µM

COc1ccc2nc3cc(Cl)ccc3c(NCCNCC(O)CO)c2c1 (stereo not drawn)
GI50: 1.48 µM
TGI: 7.51 µM

CC(O)CC(=O)CO[C@H]1[C@H](O)[C@@H](O)[C@@H](O)[C@@H]2NC(=O)c3c(cc4c(c3O)OCO4)[C@H]21 (stereo partly drawn)
TGI: 0.364 µM

CC(NC(=O)C1CCCN1C(=O)CNC(=O)OC(C)(C)C)C(=O)O (stereo not drawn) (Boc-Gly-Pro-Ala-OH; configuration not given here)
TGI: > 100 µM

CC(=O)c1cc(CC2Cc3cc4c(cc3C2=O)CCC4)cc2c1CCC2 (stereo not drawn)
TGI: > 100 µM

Cc1cc(O[C@@H]2O[C@@H](C)[C@H](O)[C@@H](O)[C@H]2O)c2c3c(c(O[C@@H]4O[C@@H](C)[C@H](O)[C@@H](O)[C@H]4O)cc2c1)C(=O)c1c(O)cccc1C3=O
GI50: > 30 µM
TGI: > 30 µM

COc1cc(/C=N/N=C(\N)NO)ccc1O
TGI: > 100 µM

N#CCCN(C1=NN(C(=O)CC(=O)Nc2ccc(Cl)cc2)C(c2ccccc2)C1)c1ccc(Cl)cc1 (stereo not drawn)
TGI: > 100 µM
